In article PMC9911399, “Two distinct binding modes provide the RNA-binding protein RbFox with extraordinary sequence specificity” one finds binding signal data, which are given here for 31 molecules.

First the molecules themselves.
B1: CUAACCC (DNA:RNA)
RNA: GGGAGACCGGAAUUCAGAUUGUCCCUAACCCUUAAAUCCCGUCGUAGCCACCA
DNA 1: CAATCTGAATTCCGGTCTCCC
DNA 2: TGGTGGCTACGACGGGATT
B2: AUCUCCC (DNA:RNA)
RNA: B1 RNA with C25A, A27C, A28U
DNA 1: CAATCTGAATTCCGGTCTCCC
DNA 2: TGGTGGCTACGACGGGATT
B3: ACCUCCU (DNA:RNA)
RNA: B1 RNA with C25A, U26C, A27C, A28U, C31U
DNA 1: CAATCTGAATTCCGGTCTCCC
DNA 2: TGGTGGCTACGACGGGATT
B4: ACUCUUU (DNA:RNA)
RNA: GGGAGACCGGAAUUCAGAUUGUCCACUCUUUUUAAAUCCCGUCGUAGCCACCA
DNA 1: CAATCTGAATTCCGGTCTCCC
DNA 2: TGGTGGCTACGACGGGATT
B5: GGCAUGU (DNA:RNA)
RNA: B4 RNA with A25G, C26G, U27C, C28A, U30G
DNA 1: CAATCTGAATTCCGGTCTCCC
DNA 2: TGGTGGCTACGACGGGATT
B6: CACUUGU (DNA:RNA)
RNA: B4 RNA with A25C, C26A, U27C, C28U, U30G
DNA 1: CAATCTGAATTCCGGTCTCCC
DNA 2: TGGTGGCTACGACGGGATT
B7: CGAGUAU (DNA:RNA)
RNA: B4 RNA with A25C, C26G, U27A, C28G, U30A
DNA 1: CAATCTGAATTCCGGTCTCCC
DNA 2: TGGTGGCTACGACGGGATT
B8: UACAUGA (DNA:RNA)
RNA: B4 RNA with A25U, C26A, U27C, C28A, U30G, U31A
DNA 1: CAATCTGAATTCCGGTCTCCC
DNA 2: TGGTGGCTACGACGGGATT
B9: UUUAAGA (DNA:RNA)
RNA: B1 RNA with C25U, A27U, C29A, C30G, C31A
DNA 1: CAATCTGAATTCCGGTCTCCC
DNA 2: TGGTGGCTACGACGGGATT
B10: GGUUCAA (DNA:RNA)
RNA: B4 RNA with A25G, C26G, C28U, U29C, U30A, U31A
DNA 1: CAATCTGAATTCCGGTCTCCC
DNA 2: TGGTGGCTACGACGGGATT
B11: UAAAGGU (DNA:RNA)
RNA: B1 RNA with C25U, U26A, C29G, C30G, C31U
DNA 1: CAATCTGAATTCCGGTCTCCC
DNA 2: TGGTGGCTACGACGGGATT
B12: GCUUUUA (DNA:RNA)
RNA: B4 RNA with A25G, C28U, U31A
DNA 1: CAATCTGAATTCCGGTCTCCC
DNA 2: TGGTGGCTACGACGGGATT
B13: UGAGCAG (DNA:RNA)
RNA: B1 RNA with C25U, U26G, A28G, C30A, C31G
DNA 1: CAATCTGAATTCCGGTCTCCC
DNA 2: TGGTGGCTACGACGGGATT
B14: AACAGAG (DNA:RNA)
RNA: B4 RNA with C26A, U27C, C28A, U29G, U30A, U31G
DNA 1: CAATCTGAATTCCGGTCTCCC
DNA 2: TGGTGGCTACGACGGGATT
B15: GUACCCA (DNA:RNA)
RNA: B1 RNA with C25G, A28C, C31A
DNA 1: CAATCTGAATTCCGGTCTCCC
DNA 2: TGGTGGCTACGACGGGATT
B16: CCAUAGU (DNA:RNA)
RNA: B4 RNA with A25C, U27A, C28U, U29A, U30G
DNA 1: CAATCTGAATTCCGGTCTCCC
DNA 2: TGGTGGCTACGACGGGATT
B17: UCGUGUA (DNA:RNA)
RNA: B4 RNA with A25U, U27G, C28U, U29G, U31A
DNA 1: CAATCTGAATTCCGGTCTCCC
DNA 2: TGGTGGCTACGACGGGATT
B18: CAAAUGU (DNA:RNA)
RNA: B1 RNA with U26A, C29U, C30G, C31U
DNA 1: CAATCTGAATTCCGGTCTCCC
DNA 2: TGGTGGCTACGACGGGATT
B19: CUUUACA (DNA:RNA)
RNA: B1 RNA with A27U, A28U, C29A, C31A
DNA 1: CAATCTGAATTCCGGTCTCCC
DNA 2: TGGTGGCTACGACGGGATT
B20: UAGUACC (DNA:RNA)
RNA: B1 RNA with C25U, U26A, A27G, A28U, C29A
DNA 1: CAATCTGAATTCCGGTCTCCC
DNA 2: TGGTGGCTACGACGGGATT
B21: AAGUUGC (DNA:RNA)
RNA: B4 RNA with C26A, U27G, C28U, U30G, U31C
DNA 1: CAATCTGAATTCCGGTCTCCC
DNA 2: TGGTGGCTACGACGGGATT
B22: UCAAAGU (DNA:RNA)
RNA: B4 RNA with A25U, U27A, C28A, U29A, U30G
DNA 1: CAATCTGAATTCCGGTCTCCC
DNA 2: TGGTGGCTACGACGGGATT
B23: AGGAGUG (DNA:RNA)
RNA: B4 RNA with C26G, U27G, C28A, U29G, U31G
DNA 1: CAATCTGAATTCCGGTCTCCC
DNA 2: TGGTGGCTACGACGGGATT
B24: GAAUUCA (DNA:RNA)
RNA: B1 RNA with C25G, U26A, A28U, C29U, C31A
DNA 1: CAATCTGAATTCCGGTCTCCC
DNA 2: TGGTGGCTACGACGGGATT
B25: UGUGUCC (DNA:RNA)
RNA: B4 RNA with A25U, C26G, C28G, U30C, U31C
DNA 1: CAATCTGAATTCCGGTCTCCC
DNA 2: TGGTGGCTACGACGGGATT
B26: AUACUGG (DNA:RNA)
RNA: B4 RNA with C26U, U27A, U30G, U31G
DNA 1: CAATCTGAATTCCGGTCTCCC
DNA 2: TGGTGGCTACGACGGGATT
B27: AUUCUUA (DNA:RNA)
RNA: B4 RNA with C26U, U31A
DNA 1: CAATCTGAATTCCGGTCTCCC
DNA 2: TGGTGGCTACGACGGGATT
B28: CCGAGUC (DNA:RNA)
RNA: B1 RNA with U26C, A27G, C29G, C30U
DNA 1: CAATCTGAATTCCGGTCTCCC
DNA 2: TGGTGGCTACGACGGGATT
B29: CCUUUAC (DNA:RNA)
RNA: B4 RNA with A25C, C28U, U30A, U31C
DNA 1: CAATCTGAATTCCGGTCTCCC
DNA 2: TGGTGGCTACGACGGGATT
B30: CGGUUUA (DNA:RNA)
RNA: B4 RNA with A25C, C26G, U27G, C28U, U31A
DNA 1: CAATCTGAATTCCGGTCTCCC
DNA 2: TGGTGGCTACGACGGGATT
B31: CUACCGA (DNA:RNA)
RNA: B1 RNA with A28C, C30G, C31A
DNA 1: CAATCTGAATTCCGGTCTCCC
DNA 2: TGGTGGCTACGACGGGATT

Numbering of substitutions follows the chain as printed; changes in the protein carry UniProt numbers. This is one part of the list.

The assay deals with T1, RBFOX1 RRM RbFoxmut (Fox-RRM*) (Homo sapiens, UniProt Q9NWB1 109-208, R118D;E147R;N151S;E152T).
T1 sequence: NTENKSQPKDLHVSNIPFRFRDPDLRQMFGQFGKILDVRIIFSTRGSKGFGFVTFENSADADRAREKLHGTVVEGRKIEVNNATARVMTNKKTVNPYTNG
Kind of assay: EMSA; HiTS-Eq, 1 nM pool, 10 min; buffer printed only for the single-RNA assays: 10 mM Tris pH 7.5, 150 mM NaCl, 3.4 mM EDTA, 0.001% NP-40, 30 C. Particulars: tags: His6 N-terminal (pET28a); label: 5' 32P. The procedure, abridged: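 Purified RbFox RRM (wild type or mutant) was equilibrated for 10 min in 50 µL with 1 nM of a 5′-radiolabelled pool of RNA with 7 randomized nucleotides, its flanks annealed to DNA oligonucleotides, across increasing protein concentrations. Free RNA was separated by 8% native PAGE, excised, reverse-transcribed, PCR-barcoded and sequenced on an Illumina HiSeq 2500. Relative association constants came from read-count changes of each variant against the control reaction, normalised to the cognate motif.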
For the molecule B1, the binding signal was 0.0661 KA relative to UGCAUGU. Then B2, with 0.0711 KA relative to UGCAUGU; and B3, with 0.0601 KA relative to UGCAUGU; and B4, with 0.0808 KA relative to UGCAUGU. To B5 belongs 0.834 KA relative to UGCAUGU. Then B6, with 0.138 KA relative to UGCAUGU; and B7, with 0.143 KA relative to UGCAUGU.

On to B8, for which the binding signal is 0.0666 KA relative to UGCAUGU. To B9 belongs 0.0732 KA relative to UGCAUGU; to B10, 0.0825 KA relative to UGCAUGU.

B11: the binding signal was 0.0926 KA relative to UGCAUGU.

B12: the binding signal was 0.0923 KA relative to UGCAUGU. Regarding B13, the binding signal is 0.098 KA relative to UGCAUGU. Then B14, with 0.0721 KA relative to UGCAUGU. B15: the binding signal was 0.0828 KA relative to UGCAUGU.

Turning to B16, the binding signal was 0.116 KA relative to UGCAUGU. B17: the binding signal is 0.259 KA relative to UGCAUGU. To B18 belongs 0.127 KA relative to UGCAUGU; to B19, 0.0935 KA relative to UGCAUGU; to B20, 0.0914 KA relative to UGCAUGU.

Turning to B21, the binding signal is 0.123 KA relative to UGCAUGU.

B22: the binding signal is 0.112 KA relative to UGCAUGU. In the case of B23, the binding signal was 0.281 KA relative to UGCAUGU. For the molecule B24, the binding signal was 0.0794 KA relative to UGCAUGU. Then B25, with 0.148 KA relative to UGCAUGU; and B26, with 0.0862 KA relative to UGCAUGU. Turning to B27, the binding signal was 0.13 KA relative to UGCAUGU. To B28 belongs 0.108 KA relative to UGCAUGU; to B29, 0.125 KA relative to UGCAUGU. In the case of B30, the binding signal is 0.0919 KA relative to UGCAUGU. To B31 belongs 0.0748 KA relative to UGCAUGU.
